# Source: ChEMBL document CHEMBL1201862, “PubChem BioAssay data set” (2004)
# System: NCI-H322M
# Test: inhibition of tumour cell growth, NCI panel, 48 h
row,SMILES,GI50
1,COc1ccc2[nH]c3c(C)c4ccnc(NCCCN(C)CCCNc5ccc([N+](=O)[O-])c6[nH]c7ccccc7c(=O)c56)c4c(C)c3c2c1,active: 0.564 µM
2,CCC1C2Cc3ccc(O)cc3C1(CC)CCN2C (stereo unspecified),inactive: > 100 µM
3,O=c1oc2ccc3ccccc3c2cc1-c1nnc(-c2ccc([N+](=O)[O-])cc2)[nH]1,inactive: > 100 µM
4,O=C(O)/C=C\C(=O)Nc1ccc2c(c1)-c1ccccc1C2,inactive: 45.6 µM
5,COCC([C@@H](O)C(O)C(=O)NCC[C@@H](C)c1nc(/C=C/CC2OC3(C[C@H](O)C2C)OC(C(C[C@H](O)C(C)[C@H](O)C(C)/C=C(C)/C(C)=C/C=C/C(C)=C/C#N)OC)[C@@H](OP(=O)(O)O)C3(C)C)co1)N(C)C (stereo partly specified),active: 0.000198 µM
6,CCOC(=O)c1c(Br)c(-c2ccc(OC)cc2)c(Br)n1C,inactive: > 10 µM
7,CCN1CCCCC(=N\O)/C(=N/O)CCCC1,inactive: > 100 µM
8,COc1nc2c(N3CCCC3)nc(N3CCNCC3)nc2nc1NCc1ccccc1,inactive: 2.92 µM
9,[N-]=[N+]=NCC(=O)c1cnc(O)nc1O,inactive: > 100 µM
10,CC(C)CCCC(C)[C@H]1CCC2[C@@H]3CCC4Nc5c(cnn5-c5ccccc5)C[C@]4(C)C3CC[C@@]21C (stereo partly specified),inactive: > 100 µM
11,[N-]=[N+]=CC(=O)OC1CCc2ccccc21 (stereo unspecified),inactive: > 100 µM
12,CC(C)C(Sc1nc(-c2ccccc2)c(-c2ccccc2)[nH]1)C(=O)N/N=C/c1ccc(Cl)cc1 (stereo unspecified),inactive: 22.3 µM
13,CC(=O)NC(CC(C)C)C(=O)NC(CC(C)C)C(=O)NC(C=O)CCCNC(=N)N (stereo unspecified),inactive: > 100 µM
14,COc1cc([C@@H]2c3cc4c(cc3[C@@H](OC(=O)c3ccc(N)cc3)C3COC(=O)[C@@H]32)OCO4)cc(OC)c1O (stereo partly specified),inactive: 6.75 µM
15,COc1cc(/C=C/c2ccc(OC)c(OC)c2)oc(=O)c1,inactive: > 250 µM
16,NC1=NC(=O)/C(=C/c2ccccc2[N+](=O)[O-])C(N)=N1,inactive: > 100 µM
17,NC(=S)Nc1c(S(N)(=O)=O)cc(S(N)(=O)=O)c(Cl)c1Cl,inactive: > 100 µM
18,Cc1ccc2c(c1)CC1(Cc3cc(C)ccc3C1=O)C2=O,inactive: > 100 µM

row,SMILES,GI50
1,CC1=NC(=O)C(C)(c2ccccc2)N1CCc1ccccc1 (stereo unspecified),inactive: 56.5 µM
2,Cn1c(=O)c2c(nc(C(=N)SCC(=O)O)n2C)n(C)c1=O,inactive: 44.9 µM
3,OC(c1ccccc1)(c1ccccc1)c1ccccn1,inactive: 77.6 µM
4,Nc1sccc1S(=O)(=O)c1ccsc1N,inactive: > 100 µM
5,CN1C/C(=C\c2ccc(Cl)cc2)C(=O)/C(=C/c2ccc(Cl)cc2)C1,inactive: 2.01 µM
6,COC(=O)C1=C(C)NC(C)=C(C(=O)OC)C1c1ccccc1NO,inactive: > 100 µM
7,Oc1cc(-c2cccc(OC(F)(F)F)c2)nc2cc3c(cc12)OCO3,active: 0.217 µM
8,CCOC(=O)/C(=C/c1ccccn1)C(=O)c1ccccc1,inactive: 16.9 µM
9,Cc1cc2oc(=O)c(Cl)c(Cl)c2c(C)c1Cl,inactive: 17.1 µM
10,O=C1CCCC2=C1CC1=C(CCCC1=O)N2c1ccc(-c2ccccc2)cc1,inactive: > 100 µM
11,Cc1cccc2nc3c(=O)[nH]c(=O)nc-3n(C)c12,inactive: > 100 µM
12,CCOc1ccccc1/N=N/c1c(-c2ccccc2)nn(C(=O)CC(=O)Nc2cccc(Cl)c2)c1-c1ccccc1,inactive: 49.2 µM
13,CC1=NN2C=Nc3c(c(-c4ccc(Cl)cc4)cn3-c3ccc(C)cc3)C2N1 (stereo unspecified),inactive: > 100 µM
14,CC(=O)NNc1nc(C)c(C(/C=C/c2ccc([N+](=O)[O-])cc2)=N/NC(N)=O)s1,inactive: > 100 µM
15,O=C1CC(c2ccccc2)n2c(nc3ccccc32)N1 (stereo unspecified),inactive: > 100 µM
16,C(CCc1nnc2c(n1)CCCC2)Cc1nnc2c(n1)CCCC2,inactive: > 100 µM
17,CC(=O)c1cccn1/C=C(\OC(=O)OC(C)(C)C)c1ccc[nH]1,inactive: 55.7 µM
18,NC12CC3CC(C1)CC(C(=O)O)(C3)C2,inactive: > 100 µM

#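 48-hour exposure; five concentrations; linearly interpolated endpoints. GI50 is the concentration that inhibits growth by half.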 Calls of active or inactive are those of the source. No stated cut-off is given here; in the data, active = GI50 up to about 1.1 µM and inactive = higher.
